{"source": "the supplement of paper PMC11417369", "note": "± gives the standard deviation of the averaged measurements. Some of the results follow.", "data": [{"test_system": "PfAP2-I AP2 domain 3 (GST-tagged)", "assay": "gcPBM binding intensity (ln(normalized median fluorescence intensity)); higher = stronger DNA binding", "in_short": "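Using an Agilent 4 × 180k array, primer-extended double-stranded 36-bp intergenic genomic probes and negative controls were exposed for 1 h to GST-fused P. falciparum DNA-binding domains expressed in E. coli. Binding was carried out in 1× PBS with 1% milk, 0.2 mg/ml BSA, 0.5% salmon testes DNA and 0.03% Triton X-100, and protein was detected with Alexa488 anti-GST antibody and a 488 nm scan. Binding intensity is the highest Masliner-normalised natural-log median intensity across replicate spots of either probe orientation.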", "values": [{"sequence": "ACATGTTAACTAAATGTACACACCTATGTTGATGTA [CACACA_site1821]", "gcPBM binding intensity (ln)": "7.82 ± 0.52"}, {"sequence": "TTTACTCCTACAACATGTACATAAAATAAATTTTTT [XGTACX_site5010]", "gcPBM binding intensity (ln)": "8.12 ± 0.45"}, {"sequence": "TTATTTACAACTTTTTTTTTTTTATTTTATTTTATT [CACACA_negctrl_site341]", "gcPBM binding intensity (ln)": "7.56 ± 0.67"}, {"sequence": "CATTCTTGTTTAAAAAGTACATAAACATATATATAT [XGTACX_site1751]", "gcPBM binding intensity (ln)": "8.8 ± 0.5"}, {"sequence": "TAAATTAATATGTATCGTACAATATATAAAACGATG [XGTACX_site2818]", "gcPBM binding intensity (ln)": "7.67 ± 0.46"}, {"sequence": "AAAAAAAATAAAGAGAAAAAAAAAAGAAAATTATAT [GTGCAC_negctrl_site550]", "gcPBM binding intensity (ln)": "7.55 ± 0.66"}, {"sequence": "ACATATTATATAACTCGTACTCGTAAAATATGTTGT [XGTACX_site2240]", "gcPBM binding intensity (ln)": "7.79 ± 0.5"}, {"sequence": "TTCTTCTGTTTTATTACACACCATTTTGCGTATACA [CACACA_site2070]", "gcPBM binding intensity (ln)": "8.46 ± 0.64"}, {"sequence": "GTTCTTTTATATATTTGTACATATTTATATATATTG [XGTACX_site4078]", "gcPBM binding intensity (ln)": "8.45 ± 0.43"}, {"sequence": "GTCATAAATGTACGCACACATACATAAACATATACA [CACACA_site650]", "gcPBM binding intensity (ln)": "8.66 ± 0.28"}, {"sequence": "ATATTATATATATAGGTGCGAGTATTTTATAAATAT [GTGCAC_site9889]", "gcPBM binding intensity (ln)": "8.49 ± 0.47"}, {"sequence": "TAAGTATACACATACACACACACACTAATAAAAAAA [CACACA_site8035]", "gcPBM binding intensity (ln)": "8 ± 0.41"}, {"sequence": "TATACACCCGGACACACACACATATATATATATATA [CACACA_site5030]", "gcPBM binding intensity (ln)": "9.33 ± 0.21"}, {"sequence": "AAATATAAAATTTATTGTACATTATATATAATATAT [XGTACX_site1416]", "gcPBM binding intensity (ln)": "7.67 ± 0.28"}, {"sequence": "TGATATATTTATATTACACACTTAAACGAAAAAAAA [CACACA_site3021]", "gcPBM binding intensity (ln)": "7.89 ± 0.48"}, {"sequence": "TATTATAATATTTATACACACATAATTTTGATAAAT [CACACA_site583]", "gcPBM binding intensity (ln)": "7.68 ± 0.4"}, {"sequence": "ATATATATATTATATGCACACGTTAAAATTTCATAT [CACACA_site4552]", "gcPBM binding intensity (ln)": "9.58 ± 0.27"}, {"sequence": "TAAAAATATTAATAAACACACAATGAGATATTGAAT [CACACA_site3153]", "gcPBM binding intensity (ln)": "7.49 ± 0.79"}, {"sequence": "AAAATTCATATATACACACACGCACATATATATATA [CACACA_site90]", "gcPBM binding intensity (ln)": "9.38 ± 0.2"}, {"sequence": "GAATGTCTAATTTTGATGCACACTTTTGTGCAATTA [CACACA_site2902]", "gcPBM binding intensity (ln)": "9.95 ± 0.35"}, {"sequence": "TTATATTATTCGTGTGTGCACGATATTTCATAATTG [GTGCAC_site9767]", "gcPBM binding intensity (ln)": "10.1 ± 0.2"}, {"sequence": "CAAAAAATTCAACACACACACACACCGATAAATAAA [CACACA_site8330]", "gcPBM binding intensity (ln)": "7.83 ± 0.22"}, {"sequence": "TTGTCCCTATAAGGGGAACACACATAAATGAATATA [CACACA_site8250]", "gcPBM binding intensity (ln)": "7.62 ± 0.46"}, {"sequence": "AAAACTATTTGTAAAAGTACATAATAAATAAATAAA [XGTACX_site7922]", "gcPBM binding intensity (ln)": "7.83 ± 0.59"}, {"sequence": "ATAATGTTTTATAATACACACATTATGTATATAAAT [CACACA_site4077]", "gcPBM binding intensity (ln)": "7.92 ± 0.39"}, {"sequence": "CGTATTTATAGAATTACACACCATATTGTAATTATT [CACACA_site7722]", "gcPBM binding intensity (ln)": "7.82 ± 0.44"}, {"sequence": "GTGTTTTTATTATTTTGTACACATATATTTAATATT [XGTACX_site2109]", "gcPBM binding intensity (ln)": "8.85 ± 0.11"}, {"sequence": "TTTTTTTTGTAATACGCATGCTAAAAATATTTATAA [TGCATGCA_site656]", "gcPBM binding intensity (ln)": "7.84 ± 0.59"}, {"sequence": "ATTTAAATAAGATATACACACAAGTAGAAGACTATG [CACACA_site806]", "gcPBM binding intensity (ln)": "7.8 ± 0.7"}, {"sequence": "TTTTCGATGTTGGTAGGAAGTTTGGTACACGTAGTA [TGCATGCA_negctrl_site145]", "gcPBM binding intensity (ln)": "8.05 ± 0.49"}, {"sequence": "ATAACTTTATTCAGTTTGCACTTTTATAACAAAAGA", "gcPBM binding intensity (ln)": "9.57 ± 0.28"}, {"sequence": "ATTTTTTATATTTAGTGTACATGTTTTAATTTATAA [XGTACX_site7512]", "gcPBM binding intensity (ln)": "8.21 ± 0.63"}, {"sequence": "CTTATATAATTCGATAGTACATATTTTTATATATAT [XGTACX_site4045]", "gcPBM binding intensity (ln)": "7.88 ± 0.47"}, {"sequence": "TATATATATATAAGCACACAAACAAAAAAAATTATA [CACACA_site3897]", "gcPBM binding intensity (ln)": "9.2 ± 0.19"}, {"sequence": "TTTTCTTTTTTTTTTGTGCACATAATATATAATTAT", "gcPBM binding intensity (ln)": "10.8 ± 0.14"}, {"sequence": "ATATTTTTTAGTAAGACGAAATAAATAAATCTTTAT [CACACA_negctrl_site1778]", "gcPBM binding intensity (ln)": "7.44 ± 0.65"}, {"sequence": "ATTGAATATGTAAATGCACACCAAAAAAAAAAAAAA [CACACA_site9189]", "gcPBM binding intensity (ln)": "9.68 ± 0.3"}, {"sequence": "TTTTTCCTATTTTTAGTGCACATATAAATAAATAAA [GTGCAC_site9821]", "gcPBM binding intensity (ln)": "11.6 ± 0.23"}, {"sequence": "TATATATATATATATTGTACACATTGTGTTTAAATA [XGTACX_site5104]", "gcPBM binding intensity (ln)": "9.43 ± 0.44"}, {"sequence": "AATAGAATGTAATATACACACATATATTTCTCTTTT [CACACA_site2630]", "gcPBM binding intensity (ln)": "7.47 ± 0.45"}, {"sequence": "TTTTTATTGTTAATTTTAATTTTTTTTTTTTAATGC [CACACA_negctrl_site162]", "gcPBM binding intensity (ln)": "7.33 ± 0.66"}, {"sequence": "TTGTAACCTATGCACGCACACAAGAAAAAAACAAAA [CACACA_site3775]", "gcPBM binding intensity (ln)": "9.28 ± 0.13"}, {"sequence": "TTTCTTTTTAAATGCTGTACAAAGGGTGACGTTAAA [XGTACX_site4724]", "gcPBM binding intensity (ln)": "8.26 ± 0.33"}, {"sequence": "TATTACACATATTATACACACATATATTATAGATAT [CACACA_site6839]", "gcPBM binding intensity (ln)": "7.95 ± 0.41"}, {"sequence": "TATTCCAAATTTACTAGTACATAATCCATCCGATAA [XGTACX_site1558]", "gcPBM binding intensity (ln)": "7.63 ± 0.52"}, {"sequence": "TTTCCTTATAAAAATACACACAAACTTTAATTAAAA [CACACA_site7710]", "gcPBM binding intensity (ln)": "7.78 ± 0.38"}, {"sequence": "TTGTGAAACATCAAGAAAAAGAAATAATAAAAAGAA [GTGCAC_negctrl_site38]", "gcPBM binding intensity (ln)": "7.75 ± 0.61"}, {"sequence": "GTTGAACATATATGCACACACATAAAATAAAAAAAA [CACACA_site2413]", "gcPBM binding intensity (ln)": "8.88 ± 0.13"}, {"sequence": "TTATATTAATATATATGTACATATATTTTTTTTATA [XGTACX_site6981]", "gcPBM binding intensity (ln)": "7.65 ± 0.3"}, {"sequence": "ATACAACAATGTGAATTATATATGGATGGAGAATGA [GTGCAC_negctrl_site148]", "gcPBM binding intensity (ln)": "7.88 ± 0.71"}, {"sequence": "AAAAGGTATCCACATACGCACACCAAAAAAAAAAAT [CACACA_site347]", "gcPBM binding intensity (ln)": "8.21 ± 0.19"}, {"sequence": "TCTTTTTTTTTTTTTTTTTTTTTTTATTTATTCATA [CACACA_negctrl_site1827]", "gcPBM binding intensity (ln)": "7.8 ± 0.47"}, {"sequence": "TTCTTAAGGAACGAACGTACAGAATAAAAAGTAAAA [XGTACX_site4294]", "gcPBM binding intensity (ln)": "8.04 ± 0.66"}, {"sequence": "ACGTAAGCGAATAAAAGTACATATATTAAAAAAAAA [XGTACX_site4458]", "gcPBM binding intensity (ln)": "8.09 ± 0.33"}, {"sequence": "AATAGGAAGACTATTTTGTATTTGATTTTTTATTCC [GTGCAC_negctrl_site453]", "gcPBM binding intensity (ln)": "7.42 ± 0.73"}, {"sequence": "TAAGTATACGCATACACACACACACCCAAAAAAAAA [CACACA_site425]", "gcPBM binding intensity (ln)": "8.15 ± 0.4"}, {"sequence": "CATTCAATTGAAAAATGTACAAAAATAAACATATGC [XGTACX_site1663]", "gcPBM binding intensity (ln)": "8.02 ± 0.56"}]}]}
